What all share (test): glycan array binding signal (z-score within array); higher = stronger binding
Common to all, as to conditions: glycan notation: IUPAC condensed, linker removed

For assay [1], the system named is Gal(b1-3)GalNAc(b1-4)[Neu5Ac(a2-3)]Gal(b1-4)Glc. In outline: (§1)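 The binding signal is a Z-score computed within each array. Data were drawn from 3228 arrays in the Consortium for Functional Glycomics database, restricted to those with a known protein sequence. Scores were averaged over arrays of the same protein sequence at different concentrations or buffers, and over linkers, and negative values can be taken as non-binding.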

In a further assay the test system is Gal(b1-3)Gal. In outline: as §1
The subject of assay [2] is Gal(b1-3)GlcNAc(b1-2)Man(a1-3)[GlcNAc(b1-4)][Gal(b1-3)GlcNAc(b1-2)Man(a1-6)]Man(b1-4)GlcNAc(b1-4)GlcNAc. In outline: as §1
Assay [3] has as its system Gal(b1-3)GlcNAc(b1-2)Man(a1-3)[Gal(b1-3)GlcNAc(b1-2)Man(a1-6)]Man(b1-4)GlcNAc(b1-4)[Fuc(a1-6)]GlcNAc. In outline:
as §1

The test system of another assay is Gal(b1-3)Gal(b1-4)GlcNAc. In outline:
as §1

Assay [4] deals with Gal(b1-3)GlcNAc(b1-2)Man(a1-3)[Gal(b1-3)GlcNAc(b1-2)Man(a1-6)]Man(b1-4)GlcNAc(b1-4)GlcNAc. In outline: as §1
A further assay has as its system Gal(a1-6)Glc. In outline: as §1
In assay [5] the test system is Gal(b1-3)Gal(b1-4)GlcNAc(b1-2)Man(a1-3)[Gal(b1-3)Gal(b1-4)GlcNAc(b1-2)Man(a1-6)]Man(b1-4)GlcNAc(b1-4)GlcNAc. In outline:
as §1

Assay [6] concerns Gal(b1-3)GlcNAc(a1-3)Gal(b1-4)GlcNAc. In outline:
as §1

A further assay concerns Gal(b1-2)Gal. In outline:
as §1

The full list was thinned out, with the strongest signals kept by preference.

As for “STIM-3 (Mus musculus) (chain not printed)”, the “glycan array binding signal (z-score)” value in assay [1] was -0.134; in the assay on Gal(b1-3)Gal, 1.82.

For the substance MBP (Homo sapiens) (chain not printed), in [2], the “glycan array binding signal (z-score)” value was -0.126. For “NCAM1 (Homo sapiens) (chain not printed)”, the “glycan array binding signal (z-score)” value in the assay on Gal(b1-3)Gal is -0.163; in [3], -0.364. For “M-Ficolin (Homo sapiens) (chain not printed)”, the “glycan array binding signal (z-score)” value in assay [1] is 3.41; in assay [3], -0.141. Take “Gal 8 long (Homo sapiens) (chain not printed)”: the “glycan array binding signal (z-score)” value in the assay with Gal(b1-3)Gal(b1-4)GlcNAc is -0.161.

For the substance “M-Ficolin G221F (Homo sapiens) (chain not printed)”, the “glycan array binding signal (z-score)” value in assay [1] stood at 5.8. On to “M-Ficolin A256V (Homo sapiens) (chain not printed)”, for which the entries for the “glycan array binding signal (z-score)” value in assay [1] and in assay [4] were 7.32 and -0.163, respectively.

As to FGF2 (chain not printed), the figures for the “glycan array binding signal (z-score)” value in assay [1], in [3] and in assay [2] were -0.77, 0.348 and 0.748, respectively.

For the substance “M-Ficolin G221F A256V (Homo sapiens) (chain not printed)”, the “glycan array binding signal (z-score)” value is -0.242 with Gal(a1-6)Glc, -0.337 in [5], 4.89 in assay [1] and -0.346 in assay [4]. Turning to “M-Ficolin Y271F (Homo sapiens) (chain not printed)”, the “glycan array binding signal (z-score)” value in [1] was 5.97. With “Collectin K1 (Homo sapiens) (chain not printed)”, in the assay with Gal(a1-6)Glc, the “glycan array binding signal (z-score)” value is -0.244. Turning to “CLEC-2 (Homo sapiens) (chain not printed)”, the “glycan array binding signal (z-score)” value in the assay with Gal(a1-6)Glc is 0.109. In the case of “Gal 3 (Homo sapiens) (chain not printed)”, the “glycan array binding signal (z-score)” value in [1] is -0.193; in assay [6], -0.27. On to “Angiogenin (Homo sapiens) (chain not printed)”, for which the “glycan array binding signal (z-score)” value in the assay with Gal(b1-2)Gal stood at 0.722.

The values are drawn from the supplement of paper PMC8728848.
